# The supplement of paper PMC8728848
# The other results are listed elsewhere or left out.
# B1: Epa13 (Candida glabrata) (protein)
# chain: MGSSHHHHHHSSGLVPRGSHMASDSSENGYAHGCSPSIRAKLKPGLSMEIYSYALRPTDDHCWDSAYLDPMFPRTGYLTHKLLGKAEGIIGPLNFLAKNPACIPAVSTLPLAFHFPKPFTITNFTMLLYGYLSPKKTGKYTFKLLADDLLLMNFGADNAFDCCSHDATKDNIGEYVAYSVWPGVNKNVTVYLESGIYYPLRLFFNNRDAIAQLDFAYYFNDSPIRQTDFSGMFFSIPDSVKCPANI
# Tests used:
# Test in all cases: glycan array binding signal (z-score within array); higher = stronger binding
# Conditions in all cases: glycan notation: IUPAC condensed, linker removed
# Gal(b1-4)Glc = target: Gal(b1-4)Glc
# Procedure, shortened: (§1)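 Glycan array binding is given as a within-array Z-score, which can be read as non-binding when negative. The arrays, 3228 of them, came from the Consortium for Functional Glycomics database and were retained only where the protein sequence was available. Z-scores were averaged across arrays of the same protein sequence at different concentrations or buffers and across linkers.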
# Gal(b1-4)Glc6S = target: Gal(b1-4)Glc6S
# Procedure, shortened: as §1
# Gal(b1-4)GlcNAc = target: Gal(b1-4)GlcNAc
# Procedure, shortened: as §1
# [1] = target: Gal(b1-4)GlcNAc(a1-6)Gal(b1-4)GlcNAc
# Procedure, shortened: as §1
# Gal(b1-4)GlcNAc(b1-2)Man = target: Gal(b1-4)GlcNAc(b1-2)Man
# Procedure, shortened: as §1
# [2] = target: Gal(b1-4)GlcNAc(b1-2)Man(a1-3)Man(b1-4)GlcNAc(b1-4)GlcNAc
# Procedure, shortened: as §1
# [3] = target: Gal(b1-4)GlcNAc(b1-2)Man(a1-3)[Gal(b1-4)GlcNAc(b1-2)Man(a1-6)]Man(b1-4)GlcNAc(b1-4)GlcNAc
# Procedure, shortened: as §1
# [4] = target: Gal(b1-4)GlcNAc(b1-2)Man(a1-3)[Gal(b1-4)GlcNAc(b1-2)Man(a1-6)]Man(b1-4)GlcNAc(b1-4)[Fuc(a1-6)]GlcNAc
# Procedure, shortened: as §1
# [5] = target: Gal(b1-4)GlcNAc(b1-2)Man(a1-3)[Gal(b1-4)GlcNAc(b1-2)Man(a1-6)][Gal(b1-4)GlcNAc(b1-4)]Man(b1-4)GlcNAc(b1-4)[Fuc(a1-6)]GlcNAc
# Procedure, shortened: as §1
# [6] = target: Gal(b1-4)GlcNAc(b1-2)Man(a1-3)[Gal(b1-4)GlcNAc(b1-2)Man(a1-6)][GlcNAc(b1-4)]Man(b1-4)GlcNAc(b1-4)[Fuc(a1-6)]GlcNAc
# Procedure, shortened: as §1
# [7] = target: Gal(b1-4)GlcNAc(b1-2)Man(a1-3)[GlcNAc(b1-2)Man(a1-6)]Man(b1-4)GlcNAc(b1-4)GlcNAc
# Procedure, shortened: as §1
# [8] = target: Gal(b1-4)GlcNAc(b1-2)Man(a1-3)[GlcNAc(b1-4)][Gal(b1-4)GlcNAc(b1-2)Man(a1-6)]Man(b1-4)GlcNAc(b1-4)GlcNAc
# Procedure, shortened: as §1
# [9] = target: Gal(b1-4)GlcNAc(b1-2)Man(a1-3)[Man(a1-6)]Man(b1-4)GlcNAc(b1-4)GlcNAc
# Procedure, shortened: as §1
# [10] = target: Gal(b1-4)GlcNAc(b1-2)Man(a1-6)Man(b1-4)GlcNAc(b1-4)GlcNAc
# Procedure, shortened: as §1
# [11] = target: Gal(b1-4)GlcNAc(b1-2)Man(a1-6)[GlcNAc(b1-2)Man(a1-3)]Man(b1-4)GlcNAc(b1-4)GlcNAc
# Procedure, shortened: as §1
# [12] = target: Gal(b1-4)GlcNAc(b1-2)Man(a1-6)[Man(a1-3)]Man(b1-4)GlcNAc(b1-4)GlcNAc
# Procedure, shortened: as §1
# [13] = target: Gal(b1-4)GlcNAc(b1-2)[Gal(b1-4)GlcNAc(b1-4)]Man(a1-3)[Gal(b1-4)GlcNAc(b1-2)Man(a1-6)]Man(b1-4)GlcNAc(b1-4)GlcNAc
# Procedure, shortened: as §1
# [14] = target: Gal(b1-4)GlcNAc(b1-2)[Gal(b1-4)GlcNAc(b1-4)]Man(a1-3)[Gal(b1-4)GlcNAc(b1-2)[Gal(b1-4)GlcNAc(b1-6)]Man(a1-6)]Man(b1-4)GlcNAc(b1-4)GlcNAc
# Procedure, shortened: as §1
# [15] = target: Gal(b1-4)GlcNAc(b1-2)[Gal(b1-4)GlcNAc(b1-4)]Man(a1-3)[GlcNAc(b1-4)][Gal(b1-4)GlcNAc(b1-2)Man(a1-6)]Man(b1-4)GlcNAc(b1-4)GlcNAc
# Procedure, shortened: as §1
# [16] = target: Gal(b1-4)GlcNAc(b1-2)[Gal(b1-4)GlcNAc(b1-4)]Man(a1-3)[GlcNAc(b1-4)][Gal(b1-4)GlcNAc(b1-2)[Gal(b1-4)GlcNAc(b1-6)]Man(a1-6)]Man(b1-4)GlcNAc(b1-4)GlcNAc
# Procedure, shortened: as §1
# [17] = target: Gal(b1-4)GlcNAc(b1-2)[Gal(b1-4)GlcNAc(b1-6)]Man(a1-6)[Gal(b1-4)GlcNAc(b1-2)Man(a1-3)]Man(b1-4)GlcNAc(b1-4)GlcNAc
# Procedure, shortened: as §1
# [18] = target: Gal(b1-4)GlcNAc(b1-2)[Gal(b1-4)GlcNAc(b1-6)]Man(a1-6)[Gal(b1-4)GlcNAc(b1-2)Man(a1-3)]Man(b1-4)GlcNAc(b1-4)[Fuc(a1-6)]GlcNAc
# Procedure, shortened: as §1
# [19] = target: Gal(b1-4)GlcNAc(b1-2)[Gal(b1-4)GlcNAc(b1-6)]Man(a1-6)[GlcNAc(b1-4)][Gal(b1-4)GlcNAc(b1-2)Man(a1-3)]Man(b1-4)GlcNAc(b1-4)GlcNAc
# Procedure, shortened: as §1
# [20] = target: Gal(b1-4)GlcNAc(b1-2)[Gal(b1-4)GlcNAc(b1-6)]Man(a1-6)[GlcNAc(b1-4)][Gal(b1-4)GlcNAc(b1-2)[Gal(b1-4)GlcNAc(b1-4)]Man(a1-3)]Man(b1-4)GlcNAc(b1-4)[Fuc(a1-6)]GlcNAc
# Procedure, shortened: as §1
# [21] = target: Gal(b1-4)GlcNAc(b1-3)Gal(b1-3)GalNAc
# Procedure, shortened: as §1
# [22] = target: Gal(b1-4)GlcNAc(b1-3)Gal(b1-3)GlcNAc
# Procedure, shortened: as §1
# [23] = target: Gal(b1-4)GlcNAc(b1-3)Gal(b1-4)Glc
# Procedure, shortened: as §1
# [24] = target: Gal(b1-4)GlcNAc(b1-3)Gal(b1-4)GlcNAc
# Procedure, shortened: as §1
# [25] = target: Gal(b1-4)GlcNAc(b1-3)Gal(b1-4)GlcNAc(b1-2)Man(a1-3)[Gal(b1-4)GlcNAc(b1-3)Gal(b1-4)GlcNAc(b1-2)Man(a1-6)]Man(b1-4)GlcNAc(b1-4)GlcNAc
# Procedure, shortened: as §1
# [26] = target: Gal(b1-4)GlcNAc(b1-3)Gal(b1-4)GlcNAc(b1-2)Man(a1-3)[Gal(b1-4)GlcNAc(b1-3)Gal(b1-4)GlcNAc(b1-2)Man(a1-6)]Man(b1-4)GlcNAc(b1-4)[Fuc(a1-6)]GlcNAc
# Procedure, shortened: as §1
# [27] = target: Gal(b1-4)GlcNAc(b1-3)Gal(b1-4)GlcNAc(b1-2)[Gal(b1-4)GlcNAc(b1-3)Gal(b1-4)GlcNAc(b1-6)]Man(a1-6)[Gal(b1-4)GlcNAc(b1-3)Gal(b1-4)GlcNAc(b1-2)Man(a1-3)]Man(b1-4)GlcNAc(b1-4)GlcNAc
# Procedure, shortened: as §1
# [28] = target: Gal(b1-4)GlcNAc(b1-3)Gal(b1-4)GlcNAc(b1-2)[Gal(b1-4)GlcNAc(b1-3)Gal(b1-4)GlcNAc(b1-6)]Man(a1-6)[Gal(b1-4)GlcNAc(b1-3)Gal(b1-4)GlcNAc(b1-2)Man(a1-3)]Man(b1-4)GlcNAc(b1-4)[Fuc(a1-6)]GlcNAc
# Procedure, shortened: as §1
# [29] = target: Gal(b1-4)GlcNAc(b1-3)Gal(b1-4)GlcNAc(b1-3)Gal(b1-4)GlcNAc
# Procedure, shortened: as §1
# [30] = target: Gal(b1-4)GlcNAc(b1-3)Gal(b1-4)GlcNAc(b1-3)Gal(b1-4)GlcNAc(b1-2)Man(a1-3)[Gal(b1-4)GlcNAc(b1-3)Gal(b1-4)GlcNAc(b1-3)Gal(b1-4)GlcNAc(b1-2)Man(a1-6)]Man(b1-4)GlcNAc(b1-4)GlcNAc
# Procedure, shortened: as §1
# [31] = target: Gal(b1-4)GlcNAc(b1-3)Gal(b1-4)GlcNAc(b1-3)Gal(b1-4)GlcNAc(b1-2)Man(a1-3)[Gal(b1-4)GlcNAc(b1-3)Gal(b1-4)GlcNAc(b1-3)Gal(b1-4)GlcNAc(b1-2)Man(a1-6)]Man(b1-4)GlcNAc(b1-4)[Fuc(a1-6)]GlcNAc
# Procedure, shortened: as §1
# [32] = target: Gal(b1-4)GlcNAc(b1-3)Gal(b1-4)GlcNAc(b1-3)Gal(b1-4)GlcNAc(b1-2)[Gal(b1-4)GlcNAc(b1-3)Gal(b1-4)GlcNAc(b1-3)Gal(b1-4)GlcNAc(b1-6)]Man(a1-6)[Gal(b1-4)GlcNAc(b1-3)Gal(b1-4)GlcNAc(b1-3)Gal(b1-4)GlcNAc(b1-2)Man(a1-3)]Man(b1-4)GlcNAc(b1-4)[Fuc(a1-6)]GlcNAc
# Procedure, shortened: as §1
# [33] = target: Gal(b1-4)GlcNAc(b1-3)Gal(b1-4)GlcNAc(b1-3)Gal(b1-4)GlcNAc(b1-3)Gal(b1-4)GlcNAc(b1-2)Man(a1-3)[Gal(b1-4)GlcNAc(b1-3)Gal(b1-4)GlcNAc(b1-3)Gal(b1-4)GlcNAc(b1-3)Gal(b1-4)GlcNAc(b1-2)Man(a1-6)]Man(b1-4)GlcNAc(b1-4)GlcNAc
# Procedure, shortened: as §1
binder,measurement,setting,value
B1,glycan array binding signal (z-score),Gal(b1-4)Glc,-0.291
same,glycan array binding signal (z-score),Gal(b1-4)Glc6S,0.255
same,glycan array binding signal (z-score),Gal(b1-4)GlcNAc,-0.478
same,glycan array binding signal (z-score),[1],0.075
same,glycan array binding signal (z-score),Gal(b1-4)GlcNAc(b1-2)Man,-0.245
same,glycan array binding signal (z-score),[2],-0.047
same,glycan array binding signal (z-score),[3],-0.393
same,glycan array binding signal (z-score),[4],-0.202
same,glycan array binding signal (z-score),[5],-0.346
same,glycan array binding signal (z-score),[6],-0.346
same,glycan array binding signal (z-score),[7],-0.193
same,glycan array binding signal (z-score),[8],-0.549
same,glycan array binding signal (z-score),[9],-0.211
same,glycan array binding signal (z-score),[10],-0.046
same,glycan array binding signal (z-score),[11],-0.161
same,glycan array binding signal (z-score),[12],-0.359
same,glycan array binding signal (z-score),[13],-0.08
same,glycan array binding signal (z-score),[14],0.003
same,glycan array binding signal (z-score),[15],-0.29
same,glycan array binding signal (z-score),[16],-0.091
same,glycan array binding signal (z-score),[17],-0.437
same,glycan array binding signal (z-score),[18],-0.246
same,glycan array binding signal (z-score),[19],-0.462
same,glycan array binding signal (z-score),[20],-0.476
same,glycan array binding signal (z-score),[21],-0.306
same,glycan array binding signal (z-score),[22],-0.255
same,glycan array binding signal (z-score),[23],0.086
same,glycan array binding signal (z-score),[24],-0.291
same,glycan array binding signal (z-score),[25],0.332
same,glycan array binding signal (z-score),[26],0.852
same,glycan array binding signal (z-score),[27],0.359
same,glycan array binding signal (z-score),[28],0.712
same,glycan array binding signal (z-score),[29],-0.272
same,glycan array binding signal (z-score),[30],1.18
same,glycan array binding signal (z-score),[31],0.086
same,glycan array binding signal (z-score),[32],0.514
same,glycan array binding signal (z-score),[33],0.32
